The text below walks through data of the antibiotic and cytotoxicity screens of Wong et al. (2023).

Some of the results follow.

For the experiment, the system named is HSkMC (human skeletal muscle cells). Nature of the experiment: cytotoxicity call (relative viability < 0.9). To be noted: 10 µM.
As for `Cc1ccc(N2C[C@@H](N)CC2=O)cc1C`, the cytotoxicity call is “inactive”.
Regarding `C[C@H]1CN([C@@H](C)CO)C(=O)Cc2cc(NS(=O)(=O)c3cn(C)cn3)ccc2O[C@@H]1CN(C)S(C)(=O)=O`, the cytotoxicity call is “inactive”.
As for `C[C@H](CO)N1C[C@H](C)[C@H](CN(C)CC2CCCCC2)OCCCC[C@H](C)Oc2ccc(NS(=O)(=O)c3ccc(Cl)cc3)cc2C1=O`, the cytotoxicity call is “inactive”.
`O=C1c2ccccc2[C@@]2(Cc3ccccc3N(CCN3CCOCC3)C2=O)[C@H](c2ccc(CO)cc2)N1Cc1ccccc1Cl`: the cytotoxicity call is “inactive”.
As to `Cc1ccc(S(=O)(=O)N(C)C[C@@H]2OCCCC[C@H](C)Oc3ccc(NS(=O)(=O)c4ccc(Cl)cc4)cc3C(=O)N([C@@H](C)CO)C[C@@H]2C)cc1`, the cytotoxicity call was “inactive”.
For `C[C@H](CO)N1C[C@H](C)[C@H](CN(C)Cc2ccc(C(=O)Nc3ccccc3N)cc2)OCCCC[C@H](C)Oc2ccc(N(C)C)cc2C1=O`, the cytotoxicity call was “inactive”.
In the case of `CO[C@H](CN(C)C(=O)c1ccc2c(c1)OCO2)[C@H](C)CN([C@@H](C)CO)S(=O)(=O)c1ccc(Cl)cc1`, the cytotoxicity call is “inactive”.
On to `Cc1noc(C)c1NC(=O)N(C)C[C@@H]1OCCCC[C@H](C)Oc2ccc(NC(=O)C3CCCCC3)cc2C(=O)N([C@H](C)CO)C[C@H]1C`, for which the cytotoxicity call is “inactive”.
On to `COc1ccc(NC(=O)Nc2ccc3c(c2)C(=O)N([C@@H](C)CO)C[C@@H](C)[C@@H](CN(C)CC2CCCCC2)OCCCC[C@@H](C)O3)cc1`, for which the cytotoxicity call was “inactive”.
As to `Cn1cnc(S(=O)(=O)N2C[C@@H](O)COC[C@@H]3O[C@H](CC(=O)NCc4cccc(F)c4)CC[C@H]32)c1`, the cytotoxicity call is “inactive”.
Consider `COc1ccc(CN(C)C[C@@H]2OCCCC[C@@H](C)Oc3ccc(NC(=O)C4CCCCC4)cc3C(=O)N([C@@H](C)CO)C[C@@H]2C)cc1`, for which the cytotoxicity call was “inactive”.
To `C[C@H](CO)N1C[C@H](C)[C@H](CN(C)S(=O)(=O)c2cn(C)cn2)OCc2ccccc2-c2ccccc2C1=O` belongs “inactive”; to `COc1ccc2c3c(n(c2c1)C)[C@H](CO)N(C[C@]13CN(C1)C(=O)Cc1ccccc1)C(=O)c1ccccn1`, “inactive”; to `C[C@@H]1CN([C@@H](C)CO)C(=O)c2ccccc2-c2ccccc2CO[C@@H]1CN(C)C(=O)Nc1ccc(F)cc1`, “inactive”.
With `Cc1noc(C)c1S(=O)(=O)N(C)C[C@@H]1OCCCC[C@@H](C)Oc2ccc(NC(=O)Nc3ccccc3)cc2C(=O)N([C@@H](C)CO)C[C@@H]1C`, the cytotoxicity call was “inactive”.
As for `CC(C)NC(=O)Nc1ccc2c(c1)C(=O)N([C@H](C)CO)C[C@@H](C)[C@@H](CN(C)C(=O)C1CCCCC1)OCCCC[C@@H](C)O2`, the cytotoxicity call is “inactive”.
For the molecule `COc1ccc(S(=O)(=O)Nc2ccc3c(c2)C(=O)N([C@@H](C)CO)C[C@H](C)[C@@H](CN(C)C(=O)Nc2ccccc2)OCCCC[C@@H](C)O3)cc1`, the cytotoxicity call was “inactive”.
Then `COc1cccc(NC(=O)C[C@H]2CC[C@H]3[C@H](COc4ccc(NC(=O)C5CCOCC5)cc4C(=O)N3C)O2)c1`, with “inactive”.
Regarding `COc1cccc(C(=O)Nc2ccc3c(c2)C(=O)N(C)[C@H]2CC[C@H](CC(=O)NCC4CC4)O[C@@H]2CO3)c1`, the cytotoxicity call was “inactive”.
`C[C@@H]1CN([C@H](C)CO)C(=O)c2cc(NC(=O)NC3CCCCC3)ccc2O[C@H]1CN(C)Cc1ccc(Oc2ccccc2)cc1`: the cytotoxicity call is “inactive”.
As for `CN(C)CCCNC(=O)C[C@@H]1CC[C@@H]2[C@@H](COc3ccc(NC(=O)c4cccc(F)c4)cc3C(=O)N2C)O1`, the cytotoxicity call is “inactive”.
Then `O=C(O)CCc1nc2ccccc2[nH]c1=O`, with “inactive”; and `COc1ccc(NC(=O)Nc2cccc3c2O[C@H](CN(C)CC2CCCCC2)[C@@H](C)CN([C@H](C)CO)C3=O)cc1`, with “inactive”; and `C[C@@H]1CCCCO[C@H](CN(C)C(=O)Nc2ccc(C(F)(F)F)cc2)[C@@H](C)CN([C@H](C)CO)C(=O)c2cc(NC(=O)Cc3ccccc3)ccc2O1`, with “inactive”.
Turning to `Cc1noc(C)c1S(=O)(=O)Nc1ccc2c(c1)C(=O)N([C@H](C)CO)C[C@H](C)[C@@H](CN(C)S(=O)(=O)c1ccc(F)cc1)O2`, the cytotoxicity call is “inactive”.
Consider `C[C@@H]1CCCCO[C@H](CN(C)Cc2ccc(C(F)(F)F)cc2)[C@@H](C)CN([C@@H](C)CO)C(=O)c2cc(NC(=O)Nc3cccc4ccccc34)ccc2O1`, for which the cytotoxicity call is “inactive”.
For `O=C(NCc1ccccc1)OCCO`, the cytotoxicity call was “inactive”.
Regarding `Cc1noc(C)c1NC(=O)Nc1ccc2c(c1)C(=O)N([C@@H](C)CO)C[C@H](C)[C@@H](CN(C)Cc1ccncc1)OCCCC[C@@H](C)O2`, the cytotoxicity call is “inactive”.
